The subject of this series is ATP. The series can be described thus: switch fluorescence ratio, 500 uM ATP over buffer (Cy3 cluster intensity, sum of 5 cycles each) (fold (ratio)); higher = stronger signal-on switching upon ATP binding; sequences stand for … in TCGTCGGCAGCGTCAGATGTGTATAAGAGACAGTTTTTTTTTTTTTTTTTTTTTTTTT…TC. To be noted: aptamer strand: ATP DNA aptamer (quencher-CACCTGGGGGAGTATTGCGGAGGAAGG + anchor), 100 nM annealed; ATP concentration: 500 uM; one replicate. Put shortly:
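Between each of five buffer/ATP cycles, the flow-cell was stripped with NaOH and re-annealed. Each cycle imaged Cy3-labelled switching-strand clusters, annealed to 100 nM quencher-labelled ATP aptamer on a modified Illumina MiSeq flow-cell, first in selection buffer and then after 15 min with 500 uM ATP at 22 °C. The fluorescence ratio is summed target-cycle over summed buffer-cycle Cy3 intensity per cluster, averaged per switch-domain sequence, with clusters outside 100-1000 RFU excluded.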

Values marked as one replicate rest on one cluster of the flow cell; about a third of the high ones do not repeat.
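Note: ATP exposure 15 min at 22 °C before imaging.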

Regarding AGGCATACCT, the switch fluorescence ratio came out at 1.03.

For TGGGGACTGT, the switch fluorescence ratio stood at 0.996.

Consider CGGAACGGGA, for which the switch fluorescence ratio came out at 1.11.

Take GCTCTTGACT: the switch fluorescence ratio was 1.02.

On to CTGACACCGA, for which the switch fluorescence ratio worked out at 1.33.

In the case of GGAGAGTGTG, the switch fluorescence ratio worked out at 1.01.

For TTATTTTTG, the switch fluorescence ratio was determined as 0.961.

CGGTGCGCTA: the switch fluorescence ratio was found to be 0.988.

Take GGACGGCTAT: the switch fluorescence ratio amounted to 1.

Take ATCGTTTGA: the switch fluorescence ratio was 0.971.

With CTTCCGCCCA, the switch fluorescence ratio was 4.7.

ACCTTGGTCC: the switch fluorescence ratio came to 1.05.

Take ATTACTGTTC: the switch fluorescence ratio stood at 1.21.

Take AAGGTTGAGC: the switch fluorescence ratio is 1.02.

For GTTAGTATGA, the switch fluorescence ratio worked out at 1.

For GACGGCCAGG, the switch fluorescence ratio was 1.07.

As for TGCCACGGGT, the switch fluorescence ratio is 0.99.

Regarding CGCGCAGTTC, the switch fluorescence ratio amounted to 2.32.

As to GTAAATTGAT, the switch fluorescence ratio stood at 1.01.

Take CCACACCTAT: the switch fluorescence ratio is 1.09.

Turning to ACCTACTCGA, the switch fluorescence ratio came out at 1.23.

As for TGATACTGAA, the switch fluorescence ratio was found to be 1.02.

Turning to GGTTGGAGAC, the switch fluorescence ratio was 0.998.

Consider AACTGTTCAT, for which the switch fluorescence ratio was determined as 1.04.

GCTCCTGAGT: the switch fluorescence ratio was 1.

In the case of GCTGCGGCAA, the switch fluorescence ratio turned out to be 1.08.

As for GTCATTAAGC, the switch fluorescence ratio is 1.03.

Turning to CGAACATGAG, the switch fluorescence ratio came out at 1.

On to GTCGCTTGAT, for which the switch fluorescence ratio is 0.997.

Regarding GGAGGACGT, the switch fluorescence ratio came to 1.06.

On to CTCGATGGTT, for which the switch fluorescence ratio stood at 1.

In the case of AGTCCGTTAT, the switch fluorescence ratio came to 1.02.

Take AGGTACTTGG: the switch fluorescence ratio amounted to 0.999.

Turning to ATTAAGATG, the switch fluorescence ratio was 0.977.

Regarding TACAGTTGGG, the switch fluorescence ratio was 1.04.

As to ATATACGTCC, the switch fluorescence ratio was 1.13.

Regarding GTGGGTATAT, the switch fluorescence ratio came to 1.02.

For ATTCGTGCGA, the switch fluorescence ratio amounted to 1.04.

For the sequence GTTATGACAG, the switch fluorescence ratio stood at 0.931.

GCTCTACCAT: the switch fluorescence ratio was 1.01.

As to TCTGGGTTGT, the switch fluorescence ratio worked out at 1.01.

With CGTAGTCCTG, the switch fluorescence ratio worked out at 0.998.

Regarding GGGCGAGTCG, the switch fluorescence ratio turned out to be 0.987.

For the sequence AAAGGTTTAG, the switch fluorescence ratio amounted to 0.981.

Consider AAAGCCCGTA, for which the switch fluorescence ratio turned out to be 1.09.

Take GGAGGGATCC: the switch fluorescence ratio worked out at 1.03.

As for CTTTGGCAGG, the switch fluorescence ratio was found to be 1.01.

Take AAACGGACAG: the switch fluorescence ratio was 1.21.

On to AGCTTCTTGT, for which the switch fluorescence ratio amounted to 1.02.

As to GTTGTATCCG, the switch fluorescence ratio was determined as 1.01.

ATATCACGTC: the switch fluorescence ratio was determined as 1.02.

As for TGTATCACG, the switch fluorescence ratio amounted to 0.991.

Take CGCCATTTTG: the switch fluorescence ratio worked out at 1.02.

As to TGTGCCGTTG, the switch fluorescence ratio is 1.04.

For TTACGACCTT, the switch fluorescence ratio turned out to be 1.31.

GGAAAAGTAA: the switch fluorescence ratio was found to be 1.

On to CCGAAAGAAA, for which the switch fluorescence ratio was determined as 1.11.

Regarding GAACCTGGCG, the switch fluorescence ratio was determined as 1.08.

As to ATGGCCGACC, the switch fluorescence ratio was 1.13.

Regarding CGCGCCCGGG, the switch fluorescence ratio amounted to 1.07.

CGCCCGTCTG: the switch fluorescence ratio was found to be 1.04.

With AGACAAGATA, the switch fluorescence ratio came to 1.

For the sequence TGGTCGCCTA, the switch fluorescence ratio is 1.03.

For the sequence ACTTGCCAG, the switch fluorescence ratio is 0.953.

For the sequence AAGATCCCTC, the switch fluorescence ratio is 1.

On to AAGGGTATCT, for which the switch fluorescence ratio was determined as 1.

For the sequence TTTGGCAATA, the switch fluorescence ratio was found to be 1.25.

Take GTGAGAAGAC: the switch fluorescence ratio turned out to be 0.981.

As for TACAGTTATT, the switch fluorescence ratio turned out to be 1.05.

Take TGACTTTAGC: the switch fluorescence ratio is 1.08.

With GGTGGCCCGC, the switch fluorescence ratio was found to be 1.03.

Take CTCTTAATTG: the switch fluorescence ratio turned out to be 1.03.

Regarding TCTAGTAAT, the switch fluorescence ratio is 1.01.

For ATGGTACCAT, the switch fluorescence ratio is 1.03.

TTCATAACTA: the switch fluorescence ratio was 1.02.

In the case of TTACAGACGC, the switch fluorescence ratio is 1.1.

For GGCCCTGCCA, the switch fluorescence ratio came to 1.

On to TGGCAGCGGC, for which the switch fluorescence ratio amounted to 0.982.

As to AATCGAAACC, the switch fluorescence ratio came to 1.1.

For the sequence TCCTAATTGG, the switch fluorescence ratio turned out to be 0.952.

With GATCGTGTCT, the switch fluorescence ratio was 1.02.

Turning to GCAATGACCG, the switch fluorescence ratio is 1.19.

For the sequence AGGGCTAACA, the switch fluorescence ratio was 0.958.

Consider AGTGTCTTGG, for which the switch fluorescence ratio turned out to be 1.

As for ACGGTGTCCC, the switch fluorescence ratio was 0.979.

Consider TGATATGGGC, for which the switch fluorescence ratio is 1.03.

Take ATGGGCTAGT: the switch fluorescence ratio was found to be 0.954.

In the case of AAACGTCGCA, the switch fluorescence ratio was found to be 1.01.

For the sequence AATGTTAACT, the switch fluorescence ratio came out at 1.03.

Consider ACCAATATGT, for which the switch fluorescence ratio worked out at 1.04.

Regarding GGTGCAGCCT, the switch fluorescence ratio came out at 0.997.

TACAGTGGTA: the switch fluorescence ratio worked out at 0.976.

Turning to ACTGCCAAAG, the switch fluorescence ratio turned out to be 1.02.

Regarding TTTGAAATG, the switch fluorescence ratio is 0.995.

As for TGATAAGTAG, the switch fluorescence ratio was determined as 0.991.

Take GCTGGATTGT: the switch fluorescence ratio is 1.06.

As for GCATCCAATG, the switch fluorescence ratio was 0.999.

With GGTAGTCGGT, the switch fluorescence ratio turned out to be 0.982.

With GTGCGTTTCA, the switch fluorescence ratio was 0.999.

GTCAGAAACC: the switch fluorescence ratio is 1.11.

Consider CTGTGTGAGA, for which the switch fluorescence ratio was 1.03.

For TAACCGCTCT, the switch fluorescence ratio is 1.11.

As for TATCGCCGCA, the switch fluorescence ratio was 1.06.

As for TCAGTCGGTC, the switch fluorescence ratio was 0.997.

Turning to CAAATGTTCG, the switch fluorescence ratio worked out at 1.01.

CGGGAATGGA: the switch fluorescence ratio came to 1.

As for GAGAAGTAAA, the switch fluorescence ratio was 0.984.

Regarding AGATGACTCG, the switch fluorescence ratio turned out to be 0.967.

CGGGATTTTA: the switch fluorescence ratio is 1.01.

Consider CCAAGTGAGA, for which the switch fluorescence ratio amounted to 1.03.

On to GTTAGTTGCT, for which the switch fluorescence ratio worked out at 0.976.

In the case of GCATTTTATG, the switch fluorescence ratio turned out to be 1.03.

As for ATTAAGATGC, the switch fluorescence ratio worked out at 1.02.

For the sequence CCCATGAGGT, the switch fluorescence ratio is 1.03.

For the sequence TAAGTTTTGT, the switch fluorescence ratio stood at 1.02.

For the sequence GTCGTCAAGG, the switch fluorescence ratio is 0.949.

Consider TGCAAAACAC, for which the switch fluorescence ratio is 1.07.

With AATTCAGTCG, the switch fluorescence ratio was 0.981.

CTTCGGAGGC: the switch fluorescence ratio came out at 1.31.

For the sequence TACGGACAAC, the switch fluorescence ratio came to 1.33.

Values taken from the supplement of paper PMC10126150.
